PMC12820563
The other results are listed elsewhere or left out. The list includes weakly bound sequences.

molecular target: T1, MBP-FoxP3dN (UniProt Q99JB6); assay: PD-seq (MBP pull-down with sequencing); details: 20 mM Tris-HCl pH 7.5, 100 mM NaCl, 1.5 mM MgCl2, 0.4 uM protein, 0.1 uM dsDNA library, 30 min, room temperature, amylose pull-down; high values mean tight binding; double strand, one strand shown
T1 sequence: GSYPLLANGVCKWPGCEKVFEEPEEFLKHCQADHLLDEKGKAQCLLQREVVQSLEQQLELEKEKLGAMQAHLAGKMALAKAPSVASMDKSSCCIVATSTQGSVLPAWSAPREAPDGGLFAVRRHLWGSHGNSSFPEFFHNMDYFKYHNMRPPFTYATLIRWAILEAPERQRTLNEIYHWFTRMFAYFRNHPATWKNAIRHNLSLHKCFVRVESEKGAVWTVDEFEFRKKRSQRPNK

| Sequence | binding signal (RPM ratio (pull-down/input)) |
| --- | --- |
| GATGATTGTTCTCCCAGCTGATGAATTCTGCTGATCGAGTAAACAAATTTTCCTAATCTTTCTGTTCAAGCGCCATCTAC | 1.82 |
| GATGATTGTTCTCCCAGCTGATGAATTGATAAGGTCGAGTAAACAAATTTTCCTAATCTTTCTGTTCAAGCGCCATCTAC | 0.242 |
| GATGATTGTTCTCCCAGCTGATGAATTCGAAGAGTCGAGTAAACAAATTTTCCTAATCTTTCTGTTCAAGCGCCATCTAC | 0.237 |
| GATGATTGTTCTCCCAGCTGATGAATTTTTGAGGTCGAGTAAACAAATTTTCCTAATCTTTCTGTTCAAGCGCCATCTAC | 0.21 |
| GATGATTGTTCTCCCAGCTGATGAATTCTTTCCATCGAGTAAACAAATTTTCCTAATCTTTCTGTTCAAGCGCCATCTAC | 0.232 |
| GATGATTGTTCTCCCAGCTGATGAATTCTAACTGTCGAGTAAACAAATTTTCCTAATCTTTCTGTTCAAGCGCCATCTAC | 0.358 |
| GATGATTGTTCTCCCAGCTGATGAATTATTACGGTCGAGTAAACAAATTTTCCTAATCTTTCTGTTCAAGCGCCATCTAC | 0.339 |
| GATGATTGTTCTCCCAGCTGATGAATTAAAAGAGTCGAGTAAACAAATTTTCCTAATCTTTCTGTTCAAGCGCCATCTAC | 0.19 |
| GATGATTGTTCTCCCAGCTGATGAATTATATAAATCGAGTAAACAAATTTTCCTAATCTTTCTGTTCAAGCGCCATCTAC | 0.358 |
| GATGATTGTTCTCCCAGCTGATGAATTGAAACGTTCGAGTAAACAAATTTTCCTAATCTTTCTGTTCAAGCGCCATCTAC | 0.304 |
| GATGATTGTTCTCCCAGCTGATGAATTCAGCCGATCGAGTAAACAAATTTTCCTAATCTTTCTGTTCAAGCGCCATCTAC | 0.392 |
| GATGATTGTTCTCCCAGCTGATGAATTCTGCGCTTCGAGTAAACAAATTTTCCTAATCTTTCTGTTCAAGCGCCATCTAC | 1.43 |
| GATGATTGTTCTCCCAGCTGATGAATTTGTTGTTTCGAGTAAACAAATTTTCCTAATCTTTCTGTTCAAGCGCCATCTAC | 7.66 |
| GATGATTGTTCTCCCAGCTGATGAATTACCACTCTCGAGTAAACAAATTTTCCTAATCTTTCTGTTCAAGCGCCATCTAC | 0.474 |
| GATGATTGTTCTCCCAGCTGATGAATTCGTCCTGTCGAGTAAACAAATTTTCCTAATCTTTCTGTTCAAGCGCCATCTAC | 0.644 |
| GATGATTGTTCTCCCAGCTGATGAATTCGTGTTCTCGAGTAAACAAATTTTCCTAATCTTTCTGTTCAAGCGCCATCTAC | 1.84 |
| GATGATTGTTCTCCCAGCTGATGAATTCCCTAGCTCGAGTAAACAAATTTTCCTAATCTTTCTGTTCAAGCGCCATCTAC | 0.19 |
| GATGATTGTTCTCCCAGCTGATGAATTCGTACATTCGAGTAAACAAATTTTCCTAATCTTTCTGTTCAAGCGCCATCTAC | 0.579 |
| GATGATTGTTCTCCCAGCTGATGAATTCTTCCATTCGAGTAAACAAATTTTCCTAATCTTTCTGTTCAAGCGCCATCTAC | 0.269 |
| GATGATTGTTCTCCCAGCTGATGAATTTGCGCTGTCGAGTAAACAAATTTTCCTAATCTTTCTGTTCAAGCGCCATCTAC | 0.911 |
| GATGATTGTTCTCCCAGCTGATGAATTATAGTTCTCGAGTAAACAAATTTTCCTAATCTTTCTGTTCAAGCGCCATCTAC | 0.808 |

| Sequence | binding signal (RPM ratio (pull-down/input)) |
| --- | --- |
| GATGATTGTTCTCCCAGCTGATGAATTTCTGAGCTCGAGTAAACAAATTTTCCTAATCTTTCTGTTCAAGCGCCATCTAC | 0.199 |
| GATGATTGTTCTCCCAGCTGATGAATTATGAACTTCGAGTAAACAAATTTTCCTAATCTTTCTGTTCAAGCGCCATCTAC | 0.331 |
| GATGATTGTTCTCCCAGCTGATGAATTCCCTCTATCGAGTAAACAAATTTTCCTAATCTTTCTGTTCAAGCGCCATCTAC | 0.317 |
| GATGATTGTTCTCCCAGCTGATGAATTGCTACGATCGAGTAAACAAATTTTCCTAATCTTTCTGTTCAAGCGCCATCTAC | 0.59 |
| GATGATTGTTCTCCCAGCTGATGAATTACATTTCTCGAGTAAACAAATTTTCCTAATCTTTCTGTTCAAGCGCCATCTAC | 0.805 |
| GATGATTGTTCTCCCAGCTGATGAATTACGGTAGTCGAGTAAACAAATTTTCCTAATCTTTCTGTTCAAGCGCCATCTAC | 0.513 |
| GATGATTGTTCTCCCAGCTGATGAATTCTTTATGTCGAGTAAACAAATTTTCCTAATCTTTCTGTTCAAGCGCCATCTAC | 0.404 |
| GATGATTGTTCTCCCAGCTGATGAATTTCATGGCTCGAGTAAACAAATTTTCCTAATCTTTCTGTTCAAGCGCCATCTAC | 0.378 |
| GATGATTGTTCTCCCAGCTGATGAATTTACGCGTTCGAGTAAACAAATTTTCCTAATCTTTCTGTTCAAGCGCCATCTAC | 1.62 |
| GATGATTGTTCTCCCAGCTGATGAATTCCTCAACTCGAGTAAACAAATTTTCCTAATCTTTCTGTTCAAGCGCCATCTAC | 0.243 |
| GATGATTGTTCTCCCAGCTGATGAATTAGAGAGCTCGAGTAAACAAATTTTCCTAATCTTTCTGTTCAAGCGCCATCTAC | 0.242 |
| GATGATTGTTCTCCCAGCTGATGAATTATAAGCGTCGAGTAAACAAATTTTCCTAATCTTTCTGTTCAAGCGCCATCTAC | 0.55 |
| GATGATTGTTCTCCCAGCTGATGAATTTACCACATCGAGTAAACAAATTTTCCTAATCTTTCTGTTCAAGCGCCATCTAC | 0.853 |
| GATGATTGTTCTCCCAGCTGATGAATTTCACTTCTCGAGTAAACAAATTTTCCTAATCTTTCTGTTCAAGCGCCATCTAC | 0.425 |
| GATGATTGTTCTCCCAGCTGATGAATTGCGCTATTCGAGTAAACAAATTTTCCTAATCTTTCTGTTCAAGCGCCATCTAC | 3.18 |
| GATGATTGTTCTCCCAGCTGATGAATTATTGTGTTCGAGTAAACAAATTTTCCTAATCTTTCTGTTCAAGCGCCATCTAC | 2.16 |
| GATGATTGTTCTCCCAGCTGATGAATTTTTCAGTTCGAGTAAACAAATTTTCCTAATCTTTCTGTTCAAGCGCCATCTAC | 0.248 |
| GATGATTGTTCTCCCAGCTGATGAATTGAGTGTTTCGAGTAAACAAATTTTCCTAATCTTTCTGTTCAAGCGCCATCTAC | 1.69 |
| GATGATTGTTCTCCCAGCTGATGAATTGTGTGGGTCGAGTAAACAAATTTTCCTAATCTTTCTGTTCAAGCGCCATCTAC | 1.95 |
| GATGATTGTTCTCCCAGCTGATGAATTTGAAGCGTCGAGTAAACAAATTTTCCTAATCTTTCTGTTCAAGCGCCATCTAC | 0.55 |
| GATGATTGTTCTCCCAGCTGATGAATTAGAAAAATCGAGTAAACAAATTTTCCTAATCTTTCTGTTCAAGCGCCATCTAC | 0.154 |

| Sequence | binding signal (RPM ratio (pull-down/input)) |
| --- | --- |
| GATGATTGTTCTCCCAGCTGATGAATTCTATGTTTCGAGTAAACAAATTTTCCTAATCTTTCTGTTCAAGCGCCATCTAC | 1.69 |
| GATGATTGTTCTCCCAGCTGATGAATTTATAACATCGAGTAAACAAATTTTCCTAATCTTTCTGTTCAAGCGCCATCTAC | 0.836 |
| GATGATTGTTCTCCCAGCTGATGAATTGTAGGTATCGAGTAAACAAATTTTCCTAATCTTTCTGTTCAAGCGCCATCTAC | 0.962 |
| GATGATTGTTCTCCCAGCTGATGAATTGCAGTCTTCGAGTAAACAAATTTTCCTAATCTTTCTGTTCAAGCGCCATCTAC | 0.93 |
| GATGATTGTTCTCCCAGCTGATGAATTCCGCAGCTCGAGTAAACAAATTTTCCTAATCTTTCTGTTCAAGCGCCATCTAC | 2.1 |
| GATGATTGTTCTCCCAGCTGATGAATTAAACAGCTCGAGTAAACAAATTTTCCTAATCTTTCTGTTCAAGCGCCATCTAC | 0.418 |
| GATGATTGTTCTCCCAGCTGATGAATTGAACAACTCGAGTAAACAAATTTTCCTAATCTTTCTGTTCAAGCGCCATCTAC | 0.424 |
| GATGATTGTTCTCCCAGCTGATGAATTCGGGGGATCGAGTAAACAAATTTTCCTAATCTTTCTGTTCAAGCGCCATCTAC | 0.323 |
| GATGATTGTTCTCCCAGCTGATGAATTTTTGCGATCGAGTAAACAAATTTTCCTAATCTTTCTGTTCAAGCGCCATCTAC | 0.78 |
| GATGATTGTTCTCCCAGCTGATGAATTTAAATGCTCGAGTAAACAAATTTTCCTAATCTTTCTGTTCAAGCGCCATCTAC | 0.945 |
| GATGATTGTTCTCCCAGCTGATGAATTGCCTCTATCGAGTAAACAAATTTTCCTAATCTTTCTGTTCAAGCGCCATCTAC | 1.41 |
| GATGATTGTTCTCCCAGCTGATGAATTGGTTCCTTCGAGTAAACAAATTTTCCTAATCTTTCTGTTCAAGCGCCATCTAC | 0.358 |
| GATGATTGTTCTCCCAGCTGATGAATTGGCAGAATCGAGTAAACAAATTTTCCTAATCTTTCTGTTCAAGCGCCATCTAC | 0.222 |
| GATGATTGTTCTCCCAGCTGATGAATTTGCATCCTCGAGTAAACAAATTTTCCTAATCTTTCTGTTCAAGCGCCATCTAC | 7.55 |
| GATGATTGTTCTCCCAGCTGATGAATTCTAATTGTCGAGTAAACAAATTTTCCTAATCTTTCTGTTCAAGCGCCATCTAC | 1.95 |
| GATGATTGTTCTCCCAGCTGATGAATTATGACCGTCGAGTAAACAAATTTTCCTAATCTTTCTGTTCAAGCGCCATCTAC | 0.522 |
| GATGATTGTTCTCCCAGCTGATGAATTATCCCTCTCGAGTAAACAAATTTTCCTAATCTTTCTGTTCAAGCGCCATCTAC | 0.319 |
| GATGATTGTTCTCCCAGCTGATGAATTTCGGGTCTCGAGTAAACAAATTTTCCTAATCTTTCTGTTCAAGCGCCATCTAC | 0.637 |
| GATGATTGTTCTCCCAGCTGATGAATTTATGCCCTCGAGTAAACAAATTTTCCTAATCTTTCTGTTCAAGCGCCATCTAC | 1.25 |
| GATGATTGTTCTCCCAGCTGATGAATTCGTGGTCTCGAGTAAACAAATTTTCCTAATCTTTCTGTTCAAGCGCCATCTAC | 1.24 |
| GATGATTGTTCTCCCAGCTGATGAATTCATTAAGTCGAGTAAACAAATTTTCCTAATCTTTCTGTTCAAGCGCCATCTAC | 0.249 |
